Variants at the background level are over-represented here.
B1: TPR 5TU (parent)
chain: GGAUCUUCUCGAUCUAACAAAAAAGACAAAUCUGCCACAAAGCUUGAGAGCAUCUUCGGAUGCAGAGGCGGCAGCCUUCGGUGGCGCGAUAGCGCCAACGUUCUCAACUAUGACACGCAAAACGCGUGCUCCGUUGAAUGGAGUUUAUCAUG

Variants of: B1
Assay: polymerase ribozyme fitness, log enrichment relative to wild type (log ratio); higher = more active; in vitro selection for triplet polymerase activity
Outline: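 Each subunit of a heterodimeric triplet polymerase ribozyme was mutagenized into a library by PCR, transcribed, and subjected to one round of in vitro selection, run in triplicate. Libraries were annealed with a biotinylated primer, the partner subunit and triplets, incubated frozen at −7 °C, and extended constructs were gel-excised, captured on streptavidin beads and recovered by RT-PCR. Input and output libraries were sequenced on Illumina, keeping genotypes with ≥10 input reads and ≥1 read per output. Fitness is log base 2 of genotype enrichment divided by wild-type enrichment, from inverse-variance-weighted replicate averages.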

Variant | polymerase ribozyme fitness (log ratio)
A21C C27A A41C C69G A73C G81A C85G C123A A137G A142C | ≤ -4.2
A21C C27G U44A A66C G70C C87G | ≤ -4.2
A21C C27G U53G G58C C76A A91G U148G | ≤ -4.2
A21C C27U G84U A107U G126C U134A | ≤ -4.2
A21C C32G G48A A122G G126U | ≤ -4.2
A21C C35U G84A U90G C99U U127G U151G | ≤ -4.2
A21C C35U U44A U53A U101G | ≤ -4.2
A21C C38A U55A A91G C93U U109G | ≤ -4.2
A21C C38U G68A C87A A91C C93A U101C A150C | ≤ -4.2
A21C C43G G84U G100C U101G G136A A142U | ≤ -4.2
A21C C43U C57U A73C C85G A119U | ≤ -4.2
A21C C43U C63U G86U | ≤ -4.2
A21C C57A C85G U130G | -4
A21C C75A A91U A98U A120G | ≤ -4.2
A21C C85U | -0.369
A21C C87G | -3.89
A21C C87G C96U | ≤ -4.2
A21C C93A C99U G136U A142U | ≤ -4.2
A21C C93A U104A G141C U144G G152A | ≤ -4.2
A21C C93G | -3
A21C C96A G143A U146G | -3.61

Variant | polymerase ribozyme fitness (log ratio)
A21C G25A C63G | -3.29
A21C G25A U127G | ≤ -4.2
A21C G25C C76G A137C U145G | ≤ -4.2
A21C G25U G88A C96U | ≤ -4.2
A21C G34U G80A C95A C103G C116U C118G | ≤ -4.2
A21C G42U C69G C85U A98U A106G A120U | ≤ -4.2
A21C G48A C79G G83U G88U U102C U104A U109C C131A G136A | ≤ -4.2
A21C G48A U53A C75G C76A G84U G100A | ≤ -4.2
A21C G50A C57A C93A U135G | ≤ -4.2
A21C G50A C96U C125G | -1.98
A21C G58C U61G U146G | -3.25
A21C G59A | -0.0146
A21C G67C C95A A98U A115U C125U U151C | ≤ -4.2
A21C G88A U104G A107U | ≤ -4.2
A21C G88U U135A | ≤ -4.2
A21C G112A A142C G143A | ≤ -4.2
A21C U33G C87U U145A A150U | ≤ -4.2
A21C U53A C72U C76G C87U A120C | ≤ -4.2
A21C U53A C87G | ≤ -4.2
A21C U53A G58A C95U U101G C116A | -0.162
A21C U55A C96U | -0.915

Variant | polymerase ribozyme fitness (log ratio)
A21C U61C C75A A91G A97G C99A A106U U144G | ≤ -4.2
A21C U77G A91C | ≤ -4.2
A21G A22C A49G U53A G83C | ≤ -4.2
A21G A23G C38G A39C U55A G59A G80A C93U U102G U111G A150G | ≤ -4.2
A21G A23U G67C G84U U144G | ≤ -4.2
A21G A24C U53A G68C C125G | ≤ -4.2
A21G A24G C51U U104G A113U | ≤ -4.2
A21G A24U C93G | -4.02
A21G A26C C54A G74C A110U A138U | ≤ -4.2
A21G A28C G50U C54A G94A C114G | ≤ -4.2
A21G A28G U61C | ≤ -4.2
A21G A37U | -0.976
A21G A39U G83A U90G G92C C108G | ≤ -4.2
A21G A40C G80C C85U A115G G143A | ≤ -4.2
A21G A40U U56A C132A | -3.09
A21G A41G C93A C132A | -3.75
A21G A41U A60C G80A G88U A98G C125U | ≤ -4.2
A21G A49C G81A G141A | ≤ -4.2
A21G A49U G50A | -0.423
A21G A52C G83U G84A U90C C95G G100A C103G A107U U139G | ≤ -4.2
A21G A60G G68U C93G C95G U139C | ≤ -4.2

Variant | polymerase ribozyme fitness (log ratio)
A21G A91U C96U G100U | ≤ -4.2
A21G C27U A52C C93G A110U G152U | ≤ -4.2
A21G C32G G50A U56G A73C G92C | ≤ -4.2
A21G C35U A64U C96U U134A | ≤ -4.2
A21G C36A C57U A64G G94U G126C A138G | ≤ -4.2
A21G C36U A52U C116U A120U U144C | -3.59
A21G C54A G74C G83A C85A G100A G117A U148A | ≤ -4.2
A21G C57A | 1.14
A21G C57G C63U G88A U151G G152U | ≤ -4.2
A21G C69A G94A A107G C114U G136A A147C | ≤ -4.2
A21G C76A G86U C93G U101C A122G | -0.0234
A21G C85G U102G | ≤ -4.2
A21G C87U G140U | -3.6
A21G C99U | 0.465
A21G G25U A64U G92U | ≤ -4.2
A21G G42U C54A C72U C76U C79U G84U | ≤ -4.2
A21G G50C A52C C79U C118U | ≤ -4.2
A21G G50C G71C C79A C95G A121U U127G G136U U139C A142C U145G | ≤ -4.2
A21G G68C G83U G92A U102A A137G A142G | ≤ -4.2
A21G G80A C99G A119U | -0.387
A21G G81A C95U A107G A119C G141U | ≤ -4.2
